Experimental data reported in the CheMixHub viscosity set.
This continues a long series; more values of the same kind are listed elsewhere.

Legend:
[1] = 100 kPa
[2] = xn = mol fraction of the nth substance listed; conditions: 101 kPa

CC[n+]1ccn(C)c1.COS(=O)(=O)[O-]
[1]
Conditions | viscosity [mPa·s]
298.15 K | 84.3
303.15 K | 68.7
308.15 K | 56.7
313.15 K | 47.6

NC(N)=O + O
[2]
Conditions | viscosity [mPa·s]
293.15 K, x1 = 8.99e-05 | 1.004
293.15 K, x1 = 0.00018 | 1.003
293.15 K, x1 = 0.0002702 | 1.003
293.15 K, x1 = 0.000358 | 1.002
293.15 K, x1 = 0.00054 | 1.003
293.15 K, x1 = 0.001079 | 0.9983
293.15 K, x1 = 0.001798 | 1.004
293.15 K, x1 = 0.004484 | 1.013
294.75 K, x1 = 0.07068 | 1.223
298.15 K, x1 = 8.99e-05 | 0.8957
298.15 K, x1 = 0.00018 | 0.8933
298.15 K, x1 = 0.0002702 | 0.8915
298.15 K, x1 = 0.000358 | 0.8917
298.15 K, x1 = 0.00054 | 0.893
298.15 K, x1 = 0.001079 | 0.8924
298.15 K, x1 = 0.001798 | 0.8951
298.15 K, x1 = 0.004484 | 0.9018
298.15 K, x1 = 0.02 | 0.92
298.15 K, x1 = 0.032 | 0.954
298.15 K, x1 = 0.05 | 1.007
298.15 K, x1 = 0.07 | 1.069
298.15 K, x1 = 0.091 | 1.127
303.15 K, x1 = 8.99e-05 | 0.797
303.15 K, x1 = 0.00018 | 0.7974
303.15 K, x1 = 0.0002702 | 0.7979
303.15 K, x1 = 0.000358 | 0.7984
303.15 K, x1 = 0.00054 | 0.8009
303.15 K, x1 = 0.001079 | 0.7999
303.15 K, x1 = 0.001798 | 0.8041
303.15 K, x1 = 0.004484 | 0.8069
303.15 K, x1 = 0.0085 | 0.872
303.15 K, x1 = 0.0219 | 0.935
303.15 K, x1 = 0.032 | 0.766
303.15 K, x1 = 0.0994 | 0.991
303.15 K, x1 = 0.1318 | 1.087
308.15 K, x1 = 0.032 | 0.766
318.15 K, x1 = 0.032 | 0.647
